# Where “and” joins values, the source holds several entries; their conditions need not be identical. Equal entries are not always repeated. The shares of active, inactive and inconclusive entries below differ from those in the screen. Calls follow the shape of the dose curve; as a rule, active = well fitted cell-killing curve with a large enough effect in the repeat runs; inconclusive = weak or mixed curves; inactive = no such curve, though single readings can be large or run the other way. A potency beside an inconclusive call is a rough fit, not a confirmed value.
# Assay: qHTS assay for identifying genotoxic compounds that show differential cytotoxicity against isogenic chicken DT40 cell lines with known DNA damage response pathways - Rad54/Ku70 mutant cell line (AID 743015); also: nearly all actives have a fitted effect of over 60% in size
# Details: DT40 Rad54/Ku70 mutant viability, CellTiter-Glo, 40 h; activity change, negative = cytotoxicity: at 66.8 µM (top of the series)
# % is scaled to controls: 0 for no effect and ±100 for the full control effect; potency is read from the fitted curve at half-maximal effect; tags tell the direction and shape of the fitted curve.
Compound,Potency,"activity change, negative = cytotoxicity"
Nc1cc(Cl)c(N)c(Cl)c1,"inconclusive: 68 µM [cytotoxic, single point]",inconclusive: -95.9%
NCCNCCNCCNCCN,"inconclusive: 33.5 µM [cytotoxic, single point]",–
CC1=Nc2ccc3ccccc3c2C1(C)C,"inconclusive: 27.3 µM [cytotoxic, single point]",–
C=CCOC(=O)c1ccccc1C(=O)OCC=C,"inactive and inconclusive: 61.1 µM [cytotoxic, single point]",–
COc1cc(C(=O)N2CCCCCCC2)cc(OC)c1OC,inconclusive: 33.5 µM [cytotoxic],–
CCCCCCCCN1CCCC1=O,"inconclusive: 68.6 µM [cytotoxic, partial curve, poor fit]",–
Oc1ccc2c(c1)-c1ccccc1C2,"inconclusive: 68.6 µM [cytotoxic, single point]",–
C=C(C)C(=O)OCCOCCOCCOCCOC(=O)C(=C)C,"inconclusive: 68.6 µM [cytotoxic, single point]",–
Sc1nc2ccccc2s1,–,inconclusive: -93.5%

# Source: PubChem BioAssay (Tox21)
